PubChem BioAssay AID651567 (National Center for Advancing Translational Sciences (NCATS), 2012)
Out of some 1,200 compounds screened, about 10 (0.8%) were called active. Another 4% or so got no clear call; they are omitted. The call rests on the fitted dose curve; in most records, active means well fitted inhibition curve with a large enough effect; inconclusive means small, poorly fitted or top-dose-only effect; inactive means no such curve, though single readings can be large or run the other way. The list shows a part of the results.

Experiment: qHTS Assay to Find Inhibitors of Chronic Active B-Cell Receptor Signaling: Hit Validation in OCI-Ly3 Assay
Details: OCI-Ly3 IkB-luciferase reporter, Chroma-Glo luminescence, 4 h; series mostly up to 46.1 µM; activity change, negative = inhibition: at the top concentration
From the text: Diffuse large B-cell lymphoma (DLBCL) is the most common category of non-Hodgkin lymphoma, with ~20,000 new cases per year in the United States. DLBCL should be regarded as a collection of different neoplasms. Microarray gene expression analysis has defined two principal types of DLBCL, named for their similarity to normal B cell stages or activation states: a germinal center B-cell (GCB) type, and an activated B-cell (ABC) type. In ABC-DLBCL, a constitutive high-level activity of the NF-kappaB family of transcription factors has been observed (1) and NF-kappaB target genes are more highly expressed in ABC primary tumors than in GCB tumors. Functional studies have shown a constitutive high-level activity of the IkappaB (inhibitor of kappa-B) kinase (IKK) complex. […] Further analysis of DLBCL primary tumors for NF-kappaB target gene expression imply that although CARD11 is required for constitutive IKK activity in all ABC-DLBCL lines, mutations in CARD11 may be the root cause of IKK activation only in lines or tumors with such mutations. In other words, CARD11 mutations may explain NF-kappaB activation in only 10% of ABC-DLBCL cases. […] This process has been termed 'chronic active BCR signaling' (CABS). The goal of this screen is to find small-molecule inhibitors of the CABS pathway found in ABC-DLBCL lines using a cell-based assay that measures IkappaBalpa stability, which has already been extensively validated in the OCI-Ly3 line (PubChem AID:445; REF: 4). […] Hits from the primary screen were tested in this selectivity secondary assay. NIH Molecular Libraries Probe Production Network [MLPCN] NIH Chemical Genomics Center [NCGC] MLPCN Grant: R03 DA031086 PI Name: Dr. R. Eric Davis
Cells were seeded in 1536-well plates at 5000 cells/3ul in IMDM medium containing 0.5% FBS, w/o phenol red, L-glutamine, 25 mM HEPES, 3 mg/ml sodium bicarbonate. After centrifugation for 1 min. at 1000 rpm, 23 nl of compounds or DMSO were delivered to each well using a pin tool. Then 1ul 80ng/ml doxycycline was dispensed into white solid 1536-well plates and the plates were incubated at 37C/5% C02 in a cell incubator for 4 hrs. Then 4 ul Chroma-Glo luminescent substrate mix (Promega) was added to each well. The plate was incubated at R.T. for 10-15 min. The plates were measured on a ViewLux plate reader for green luminescence (540/20 nm filter) and red luminescence (618/8 nm filter). The green and red luminescent signals were corrected for red and green luminescence filter overlap using previously determined filter calibration constants (determined using the procedure outlined in the Promega Technical Manual). The %Activity was determined from the ratio of corrected green/red luminescent values. Green luminescent and ratio %Activity was determined by normalizing to the difference in signal between basal cells (0% Activity) and cells incubated with 10 uM of the proteasome inhibitor MG-132 (100% Activity). Red luminescent %Activity was normalized to the difference between red luminesence in basal cells (0%Activity) and zero luminescence (-100% Activity). Concentration-response curves were fitted to the signals arising from the green luminescence (I-kappa-B-alpha-luciferase fusion; IkB-luc) and the red luminescence (unfused luciferase; luc) as well as the calculated ratio. The concentration-effect curves were then classified based on curve quality (r2), response magnitude and degree of measured activity. Compounds were then categorized based on their concentration-response curves for all three datasets (Ikb-luc, luc and ratio).
On the % scale 0 is the no-effect control and ±100 the full control effect.

Activity change, negative = inhibition, inactive:
COc1ccccc1OCCCN1C(=O)C(=O)c2cccc(C)c21 -1.49%
O=C(COc1ccc(-c2ccccc2)cc1)N1CCN(S(=O)(=O)Cc2ccccc2)CC1 -0.659%
Cc1ccc(C)c(/C=C/C(=O)c2ccccc(=O)c2O)c1 -19.2%
Cn1nnnc1N=N/C(=N/Nc1ccccc1)c1ccccc1 -7.08%
COc1ccc(CC2(CO)CCN(Cc3cccc4nccnc34)CC2)cc1 -0.257%
Cc1c(CCC(=O)N2CCC(C(=O)O)CC2)c(=O)oc2cc3oc4c(c3cc12)CCCC4 0.36%
COC(=O)c1ccc(Oc2cc(C)nc(-n3nc(C)cc3C)n2)cc1 -2.62%
COc1ccccc1C1C2=C(COC2=O)Nc2cc3c(cc21)OCO3 (stereo not drawn) -6.67%
O=[N+]([O-])/C=C/c1cc2ccccc2[nH]1 -16.6%
Cc1cc(C)cc(N2CC(O)=C(c3nc4ccccc4c(=O)[nH]3)C2=N)c1 0.3%
Cc1nc(N2N=C(c3ccc(Cl)cc3)CC2c2ccco2)sc1C(=O)N(C)C (stereo not drawn) -0.7%
COc1ccc(/C=C/C(=O)Nc2ccc(-n3nncc3-c3ccc(OC)c(OC)c3)cc2)cc1OC -1.06%
Oc1[nH]c2c(Cl)cc(Cl)cc2c1N=NC(=S)NCC1CCCO1 (stereo not drawn) -26.5%
CCOC(=O)c1c(C)n(C)c2ccc(OC)c(NC(=O)CN3CCC4(CC3)OCCO4)c12 -0.0762%
CCc1cc2c(SCC(=O)NC3CC3)ncnc2s1 -0.679%
S=c1nn[nH]n1C12CC3CC(CC(C3)C1)C2 0.0814%
CCOCCCNC(=O)c1ccc2c(c1)N=C(CC)c1cc(Br)ccc1S2 -1.89%
Clc1ccc2nc(-c3ccccc3)nc(C(Cl)Cl)c2c1 -3.4%
O=C(CSc1nnnn1-c1ccccc1)Nc1nsc(-c2ccc(Cl)cc2)n1 -2.89%
COc1ccc(/C=C2\CCc3ccccc3C2=O)cc1O 39.3%
NC(=S)N/N=C1\CC(c2ccc3c(c2)OCCCO3)Oc2ccc(F)cc21 (stereo not drawn) -4.5%
CCOC(=O)C1=C(COC(=O)/C=C/c2ccc(O)c(OC)c2)NC(=O)NC1C (stereo not drawn) -1.58%
COc1cccc(C(=O)Nc2cc(NC(=O)c3cccs3)ccc2C)c1OC 0.529%
COc1cc(CC(=O)OCC(=O)c2ccc3c(c2)OCCO3)cc(OC)c1OC -2.34%
CCOc1ccccc1NC(=O)Cn1nnc(C(=O)NCc2cccs2)c1N -3.2%
Cc1cccc(NS(=O)(=O)c2ccc(-c3cnc(C4CC4)o3)cc2)c1C -14.9%
C=CCSc1nc(C)cc2c1C(=O)OC2 0.181%
C#C[C@]1(O)CC[C@H]2[C@@H]3CCc4cc(O)ccc4[C@H]3CC[C@@]21C -0.706%
c1ccc2c(CSc3ncnc4nc[nH]c34)cccc2c1 -2.81%
COc1cccc(/C=N/NC(=S)Nc2cccc(S(=O)(=O)N(C)C)c2)c1 -14.5%
Cc1ccc(C)c(/C=N/NC(=S)NC(C)C)c1 -0.518%
CCOc1ccc(S(=O)(=O)Nc2ccc3oc(C)c(C(=O)OCCOC)c3c2)cc1 -4.35%
CCCc1oc2ccc(NS(=O)(=O)c3ccc(OC)cc3)cc2c1C(=O)OCC -4.35%
COc1cc(-c2noc(C)c2-c2ccc(N(C)C)nc2)cc(OC)c1OC -1.48%
Cc1cc(C(=O)OCC(=O)Nc2c(Cl)cccc2Cl)c(C)o1 -0.808%
CCc1ccc(CNC(=O)Cc2ccc(NC(=O)C3=C(C)OCCS3)cc2)cc1 -2.51%
CCN(CC)S(=O)(=O)c1ccc(N2CCOCC2)c(NC(=O)c2c3c(nc4ccccc24)CCC3)c1 -1.2%
CCOc1ccccc1C(=O)N1CCN(c2cccc(Cl)c2)CC1 -2.27%
O=C(O)CCCN1C(=O)/C(=C\c2ccccc2OCc2ccccc2)SC1=S -3.44%
COc1ccc(OC)c(S(=O)(=O)Nc2ccc(-c3ccc4nnc(C)n4n3)cc2)c1 -2.99%
O=C(/C=C/c1cccs1)c1cc(Cl)ccc1OC(=O)N1CCOCC1 -2.1%
COc1ccc(/C=C/C(=O)c2cc(Br)ccc2OC(=O)c2ccco2)cc1OC -26.8%
COCCn1c(-c2cccc([N+](=O)[O-])c2)nc2c1c(=O)[nH]c(=O)n2Cc1ccccc1 -0.277%
Cc1cccc(C)c1NS(=O)(=O)c1ccc(-c2cnc(C3CC3)o2)cc1 -5.58%
O=C(N/N=C/c1ccccc1)c1[nH]c2ccc(Br)cc2c1-c1ccccc1 -6.65%
COCCOC(=O)c1[nH]c2c(c1C)C(=O)CC(c1ccccc1)C2 (stereo not drawn) -0.738%
c1ccc(-c2cc(-c3nnc4n3N=C(c3ccc5ccccc5c3)CS4)[nH]n2)cc1 -4.31%
CCC(NC(=O)CCc1c(C)c2cc3c4c(oc3cc2oc1=O)CCCC4)C(=O)O (stereo not drawn) -0.21%
CCCC1=Nc2cc(C(=O)NCCCOC(C)C)ccc2Sc2ccccc21 -2.65%
O=c1cc(-c2cccc(F)c2)[nH]c2ccccc12 -3.48%
Oc1[nH]c(N=C2N=c3ccccc3=N2)c2ccccc12 -12.1%
COC(=O)C1=C(C)NC(C)=C(C(=O)OC)C1/C=C/c1ccccc1 -10.9%
COc1ccc(C(=O)Nc2ccc(-n3nncc3-c3ccc(OC)c(OC)c3)cc2)cc1 -7.03%
CCOc1ccc(N(CC(=O)Nc2ccccc2C)S(=O)(=O)c2c(C)noc2C)cc1 -2.55%
CC(/C=N/NC(=O)c1n[nH]c2c1CCC2)=C\c1ccccc1 0.202%
O=C(CNCc1ccccc1)Nc1ccc(Oc2ccccc2)cc1 -1.02%
Cc1ccc(S(=O)(=O)n2ccc(OC(=O)c3cccs3)n2)cc1 -2.54%
Cc1cc(C)cc(C(=O)N2CC(=O)Nc3ccccc32)c1 -1.15%
COc1ccc(NC(=S)N/N=C/c2ccc(F)cc2)cc1OC -2.79%
COc1ccc(-c2noc(CSc3nc(N)c(-c4ccccc4)c(=O)[nH]3)n2)cc1 -0.936%
C/C(=N\NC(=S)NC1CCCCC1)c1ccc(C)o1 -3.08%
Nc1ncnc2c1ncn2[C@@H]1O[C@H](CNCc2ccc(-c3cc(C(F)(F)F)ccc3Cl)o2)[C@@H](O)[C@H]1O -1%
S=c1[nH]nc(-c2ccco2)n1/N=C/C(Cl)=C/c1ccccc1 26.3%
CCCC(C)NC(=O)c1ccc(C2SCC(=O)N2Cc2ccco2)cc1 (stereo not drawn) -1.22%
COc1ccc(-c2c(C)c3ccc(O)cc3oc2=O)cc1 -0.672%
Cn1c(=O)n(C)c2cc(NS(=O)(=O)c3ccc(Br)s3)ccc21 -4.34%
CCC1=Nc2cc(C(=O)NCc3ccco3)ccc2Sc2ccc(C)cc21 -4.83%
S=C(NCc1ccc2[nH]c3c(c2c1)CCCC3)Nc1ccccc1 -16.7%
COc1cc2sc(-c3ccccc3OC)c(-c3ccc(OCCN4CCOCC4)cc3)c2cc1OC -2.64%
COc1cccc(N2CCN(C(=O)c3ccc(CS(=O)c4ccccc4Cl)o3)CC2)c1 (stereo not drawn) -1.72%
COc1cc(OC)c2c(-c3cccc(-c4ccc(NC(C)=O)cc4)c3)cc(=O)oc2c1 -2.94%
CC1CCN(C(=O)CCCOc2cc(=O)n(C)c3ccccc23)CC1 -5.58%
Cc1ccc(-c2ccc(/C=N/NC(N)=S)o2)cc1 0.782%
O=[N+]([O-])c1ccccc1S(=O)(=O)Nc1cccc2cccnc12 27.6%
Nc1nc(Cl)nc2c1ncn2[C@@H]1O[C@H](CO)[C@@H](O)[C@H]1O -0.82%
C(=N\Nc1nc2ccccc2s1)/c1ccccn1 16%
CCCCOc1ccc2c(C)cc(=O)oc2c1OCCCC -2.1%
COc1ccc(C2CC(c3ccncc3)=NN2c2ccc(S(N)(=O)=O)cc2)cc1 (stereo not drawn) -5.91%
CCC(=NCCc1c(C)[nH]c2ccc(C)cc12)C1=C(O)CC(c2ccccc2)CC1=O (stereo not drawn) -7.19%
O=C(N/N=C/C(Br)=C\c1ccccc1)c1ccc2nc[nH]c2c1 -11.1%
CCCn1nnc(NC(=S)NC(=O)c2ccc(-c3ccc(Br)cc3)o2)n1 -0.674%
COc1cc(C2C(C#N)=C(N)Oc3cc4c(cc32)OCO4)cc(OC)c1OC (stereo not drawn) -3.1%
COc1ccccc1NS(=O)(=O)c1cccc(C(=O)N/N=C/c2cn(-c3ccccc3)nc2-c2ccccc2)c1 0.349%
CC(=O)c1c(C)[nH]c(C(=O)OCC(=O)c2c[nH]c3ccccc23)c1C -5.35%
COc1ccc(CNc2nc(NCc3ccc(OC)cc3)c3ncn(C4CCCC4)c3n2)cc1 -2.03%
NC(=S)N/N=C\c1ccc(-c2cccc(Cl)c2Cl)o1 -0.203%
O=C(Cc1ccc(-n2c(=O)c3ccccc3n(Cc3ccccc3F)c2=O)cc1)NCC1CCCO1 (stereo not drawn) -0.1%
Cc1ccc(C(=O)c2cc([N+](=O)[O-])ccc2N2CCCCC2)cc1C -4.53%
Nc1ncnc2c1ncn2C1OC(COP(=O)(O)O)C(O)C1O (stereo not drawn) 0.196%
O=C(Oc1c(CN2CCOCC2)cc(Cl)c2cccnc12)c1ccc(F)cc1 -3.45%
CCCCOc1ccccc1C1CC(=O)NC2=C1C(=O)CCC2 (stereo not drawn) -0.837%
CC1=Nc2cc(C(=O)NC3CCCCC3)ccc2Sc2ccc(Cl)cc21 -3.9%
CCc1ccc(NC(=O)CSc2nc(=O)n(CCCN3CCOCC3)c3c2CCCC3)cc1 -0.51%
C/C(=N\NC(=O)c1c([N+](=O)[O-])c(C)nn1C)c1ccc(NC(=O)C2CCCC2)cc1 -0.445%
CC[C@]12c3[nH]c4cc(CCC(=O)N(C)C)ccc4c3CCN1C(=O)[C@@H](CC(=O)NCCCN(C)C)C[C@@H]2C(=O)N1CCN(C(=O)c2ccco2)CC1 -0.977%
Cc1noc(C)c1CSc1nc2[nH]ncc2c(=O)n1-c1ccccc1 -5.84%
CCc1cc2c(=O)[nH]c(-c3ccccn3)nc2s1 14.9%
CCn1c2ccccc2c2cc(NC(=O)c3ccccc3-c3ccccc3C(=O)O)ccc21 -0.464%
COc1cc2sc(-c3ccc(S(C)(=O)=O)cc3)c(C#CCO)c2cc1OC -0.578%
Oc1[nH]c2ccc(Br)cc2c1N=NC(=S)N1CCOCC1 -28.4%
Cc1ccc(NC(=O)/C=C/c2ccco2)nc1 21.6%
CC(/C=N/NC(=O)c1cc(-c2ccc(Cl)cc2)nc2ccccc12)=C\c1ccco1 -1.82%
Cc1ccc(CNC(=O)Cc2ccc(-n3c(=O)[nH]c4ccsc4c3=O)cc2)cc1 -1.57%
